Reference: article PMC3510253 (PLoS Pathogens, 2012)
These are yes or no findings as the source states them, for the method shown. For some of these results: In cells and extracts the contact can be indirect. Some entries that bind do so weakly or less than the wild type. For some of these results: Where a sequence is shown, tags or fusion partners need not be part of it.

Amino acid sequences for entries named in this document (tags omitted).
UniProt Q61510: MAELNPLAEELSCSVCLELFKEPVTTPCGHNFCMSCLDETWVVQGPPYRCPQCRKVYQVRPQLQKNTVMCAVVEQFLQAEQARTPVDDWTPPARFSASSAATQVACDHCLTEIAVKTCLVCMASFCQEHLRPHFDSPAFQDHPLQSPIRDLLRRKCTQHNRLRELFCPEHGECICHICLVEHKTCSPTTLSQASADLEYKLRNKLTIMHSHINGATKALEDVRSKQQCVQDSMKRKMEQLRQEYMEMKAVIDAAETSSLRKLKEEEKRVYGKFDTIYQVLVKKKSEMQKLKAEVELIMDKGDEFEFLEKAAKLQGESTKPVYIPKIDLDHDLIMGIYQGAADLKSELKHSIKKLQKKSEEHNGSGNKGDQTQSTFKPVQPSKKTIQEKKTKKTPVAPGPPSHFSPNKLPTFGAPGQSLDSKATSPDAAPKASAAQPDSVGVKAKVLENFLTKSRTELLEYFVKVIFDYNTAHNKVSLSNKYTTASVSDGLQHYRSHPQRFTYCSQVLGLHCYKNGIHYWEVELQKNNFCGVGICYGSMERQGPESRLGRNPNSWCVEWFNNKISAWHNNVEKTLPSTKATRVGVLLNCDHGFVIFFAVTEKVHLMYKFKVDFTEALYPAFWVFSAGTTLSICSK
UniProt P03496: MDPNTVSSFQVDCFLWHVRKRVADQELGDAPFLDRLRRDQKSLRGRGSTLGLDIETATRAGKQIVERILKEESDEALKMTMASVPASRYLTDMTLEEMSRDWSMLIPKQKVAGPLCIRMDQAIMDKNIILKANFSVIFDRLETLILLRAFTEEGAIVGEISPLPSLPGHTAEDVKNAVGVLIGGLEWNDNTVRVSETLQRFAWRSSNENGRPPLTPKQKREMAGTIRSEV
UniProt Q14258: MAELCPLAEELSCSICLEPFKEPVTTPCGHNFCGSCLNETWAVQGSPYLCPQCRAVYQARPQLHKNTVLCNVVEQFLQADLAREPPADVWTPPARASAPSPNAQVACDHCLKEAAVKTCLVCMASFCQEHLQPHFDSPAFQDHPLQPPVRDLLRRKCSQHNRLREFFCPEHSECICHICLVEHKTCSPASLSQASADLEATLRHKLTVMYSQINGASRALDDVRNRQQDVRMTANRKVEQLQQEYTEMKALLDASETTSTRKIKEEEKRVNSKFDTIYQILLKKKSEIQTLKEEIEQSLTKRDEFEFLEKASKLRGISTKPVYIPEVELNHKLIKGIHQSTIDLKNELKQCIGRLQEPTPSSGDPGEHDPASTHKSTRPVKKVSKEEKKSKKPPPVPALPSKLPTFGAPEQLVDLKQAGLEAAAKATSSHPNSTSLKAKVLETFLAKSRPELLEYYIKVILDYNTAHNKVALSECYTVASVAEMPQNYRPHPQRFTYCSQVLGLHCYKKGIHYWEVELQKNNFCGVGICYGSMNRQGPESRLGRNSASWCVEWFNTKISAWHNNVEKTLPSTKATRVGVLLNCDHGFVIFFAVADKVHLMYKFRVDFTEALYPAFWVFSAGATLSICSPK

Columns and labels:
[1] = biological target: MBP-mouse TRIM25-Flag (mouse) (UniProt Q61510); experiment: pull-down; both purified
[2] = biological target: T1, HA-tagged human Riplet (human) (UniProt Q8IUD6); experiment: co-IP
T1 sequence: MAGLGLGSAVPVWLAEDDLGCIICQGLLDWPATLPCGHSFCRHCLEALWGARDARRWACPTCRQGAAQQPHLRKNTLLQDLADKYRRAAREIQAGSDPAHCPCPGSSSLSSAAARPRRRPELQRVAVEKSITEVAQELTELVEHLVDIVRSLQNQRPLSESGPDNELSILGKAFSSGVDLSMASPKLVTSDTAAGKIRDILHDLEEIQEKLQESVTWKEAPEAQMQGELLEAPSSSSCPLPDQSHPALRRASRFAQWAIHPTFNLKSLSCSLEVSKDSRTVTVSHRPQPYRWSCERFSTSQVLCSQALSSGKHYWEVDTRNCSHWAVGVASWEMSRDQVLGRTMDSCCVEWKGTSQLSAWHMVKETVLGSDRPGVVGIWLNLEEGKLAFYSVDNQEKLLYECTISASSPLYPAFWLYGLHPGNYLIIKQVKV

[3] = biological target: NS1 protein of influenza A/Puerto Rico/8/34 (PR8), expressed from the virus in infected cells (influenza A virus A/Puerto Rico/8/34 (PR8)) (UniProt P03496); experiment: co-IP

Substance	binding [3]	further results
Glutathione-S-transferase (GST)-NS1 fusion protein (PR8) (from UniProt P03496 1-230)		binding [1]: no binding
NS1 protein of influenza A/Puerto Rico/8/34 (PR8), expressed from the virus in infected cells (from UniProt P03496 1-230)		binding [2]: no binding
endogenous human TRIM25 (from UniProt Q14258 1-630) (enzyme)	binds	
endogenous mouse TRIM25 (from UniProt Q61510 1-634) (enzyme)	no binding	
